Results on 85 molecules are retold here after ChEMBL document CHEMBL1201862, “PubChem BioAssay data set” (2004).

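How tested: cells in 96-well plates exposed to compound for 48 hours at five concentrations. Here, GI50 denotes the concentration required for 50% inhibition of growth.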 Calls of active or inactive are those of the source. Cut-off read from the data, not from the text of the source: active = GI50 up to about 1.1 µM and inactive = higher.

This assay concerns NCI-H322M. As to the kind of experiment: NCI-60 cell line screen, 48 h.
Consider `CC1=NN(C(=O)c2ccccc2O)C(=O)/C1=C/c1ccc(O)cc1`, for which the GI50 was inactive: 2.26 µM.

Consider `N#Cc1c(N)nc(S)c(C#N)c1-c1ccccc1`, for which the GI50 was inactive: > 100 µM.

Take `Nc1nc(-c2cccs2)cs1`: the GI50 is inactive: > 100 µM.

With `COc1ccc(-c2c3c(nc4nc(SCC(=O)c5ccc(Br)cc5)nc(N)c24)CCCC3)cc1OC`, the GI50 is inactive: > 100 µM.

Consider `CCN(CC)C1Oc2cc3c(cc2C(c2cc(OC)c(OC)c(OC)c2)C1C)OCO3` (stereo not given), for which the GI50 is active: 0.966 µM.

As for `CC(=O)Nc1nc(NC(C)=O)c2nc(CO)[nH]c2n1`, the GI50 was inactive: > 100 µM.

For `C1CSCCCSCCCSCCCSCCCSCCCSCCCSCCCSC1`, the GI50 is inactive: > 100 µM.

Consider `C=C1[C@H](OC(=O)C(C)C)[C@@H](OC(C)=O)[C@@H](OC(C)=O)C(C)(C)[C@@H]2O[C@H]2[C@@H](C)C(=O)[C@@]2(OC(C)=O)C[C@@](C)(OC(C)=O)[C@H](OC(C)=O)[C@@H]2[C@H]1OC(C)=O`, for which the GI50 is inactive: > 100 µM.

For the molecule `O=C1/C(=C/c2cccc([N+](=O)[O-])c2)N=C(c2ccccc2)N1c1nc2ccc(Sc3ccccc3)cc2[nH]1`, the GI50 was inactive: 54.3 µM.

On to `CC12Oc3ccc4ccccc4c3CC1Cc1c(ccc3ccccc13)O2` (stereo not given), for which the GI50 is inactive: 97.9 µM.

In the case of `O=[N+]([O-])/C(Cl)=C(/C(Cl)=C(Cl)Cl)N1CCOCC1`, the GI50 was inactive: 18.3 µM.

Consider `CC1(C)OC(C(=O)Nc2cc3c4ccccc4ccc3c3ccccc23)C(C(=O)N2CCCCC2)O1` (stereo not given), for which the GI50 was inactive: > 83 µM.

As to `O=c1ccn2n1CCCCC2`, the GI50 is inactive: > 100 µM.

For the molecule `COc1cc2cc(C(=O)N3CC(CCl)c4ccccc43)[nH]c2c(OC)c1OC` (stereo not given), the GI50 was inactive: > 100 µM.

For `Cc1cc(N2CCOCC2)nc2ccc(Cc3ccc4nc(N5CCOCC5)cc(C)c4c3)cc12`, the GI50 was inactive: > 100 µM.

Consider `Cc1cccc(C)c1NC(=O)C(Cc1c[nH]c2ccccc12)NC(=O)OCc1ccccc1` (stereo not given), for which the GI50 was inactive: 16.7 µM.

For `Cc1nc2c(n1-c1ccccc1)C(=O)c1ccccc1C2=O`, the GI50 was inactive: 70.6 µM.

Turning to `Cc1ccc2c(ccc(/C=C/c3ccc(O)c4ncccc34)[n+]2C)c1`, the GI50 was inactive: 10.2 µM.

In the case of `COc1ccc(C(=O)Nc2ccc(O)c(=O)cc2)cc1`, the GI50 was inactive: > 100 µM.

In the case of `CCOC(=O)c1c2c(n(C)c1-c1ccccc1)C(=O)C(C)=CC2=O`, the GI50 is inactive: 16 µM.

On to `COc1cccc(NC(=O)/C(CS(=O)(=O)CCC(C(C)=O)C(C)=O)=N/NC(C)(C)C)c1`, for which the GI50 was inactive: > 100 µM.

`COc1cc(C2S/C(=C/c3ccccc3)C(=O)N2c2ccc(Cl)cc2)cc(OC)c1OC` (stereo not given): the GI50 is inactive: 21 µM.

`CC(=O)c1c(-c2ccc(Cl)cc2)c(C#N)c(=S)n(C2OC(CO)C(O)C(O)C2O)c1C` (stereo not given): the GI50 was inactive: > 100 µM.

For the molecule `C=CCCC(=O)N1CCC(C(=O)OCC)C1=O` (stereo not given), the GI50 was inactive: > 100 µM.

Take `COc1cc(C(C)O)c[n+](CCc2c[nH]c3ccccc23)c1` (stereo not given): the GI50 is inactive: > 100 µM.

As for `CC(=O)SC(SC(C)=O)SC(C)=O`, the GI50 is inactive: > 100 µM.

Regarding `O=C1C2=C(CCCC2)Nc2cccc3ncn1c23`, the GI50 is inactive: > 100 µM.

Consider `O=C(O)c1nn[nH]c1S`, for which the GI50 is inactive: > 100 µM.

Regarding `CC1CCC/C1=C(/I)C(=O)c1ccccc1` (stereo not given), the GI50 is inactive: > 100 µM.

For `N#CC(C(=O)CCC(=O)Nc1ccc(Cl)cc1)c1ccc(Cl)cc1` (stereo not given), the GI50 is inactive: > 100 µM.

As for `COc1ccccc1/C=C1\N=C(C)OC1=O`, the GI50 is inactive: > 100 µM.

As to `Cc1cc(C)c(S(=O)(=O)N(CCCCCN)OCCCN)c(C)c1`, the GI50 was inactive: 18.2 µM.

Take `CCOC(=O)CCC(NC(=O)c1ccc(Nc2nc3ccccc3nc2-c2cccs2)cc1)C(=O)OCC` (stereo not given): the GI50 was inactive: 32.4 µM.

Turning to `O=Cc1c2ccccc2n2ccc3c4ccccc4[nH]c3c12`, the GI50 is inactive: > 10 µM.

Regarding `O=c1nc2occc2cn1C1CC(O)C(CO)O1` (stereo not given), the GI50 is inactive: > 100 µM.

Take `COC1OC(C(C)O)C2OC(C)(C)OC12` (stereo not given): the GI50 was inactive: > 100 µM.

In the case of `CC1(Br)CC2OC3(Br)C=CC(C)(O)C2(CC1=O)C3(C)C` (stereo not given), the GI50 is inactive: > 100 µM.

Turning to `CCc1cccc(C(C)C)c1NC(=O)CC1Sc2ccccc2NC1=O` (stereo not given), the GI50 is inactive: > 100 µM.

As for `CC12CCCC(C#N)(C1)OC2=O` (stereo not given), the GI50 was inactive: > 100 µM.

For the molecule `CN(C)CCCN1c2ccc([N+](=O)[O-])cc2CCc2cc([N+](=O)[O-])ccc21`, the GI50 was inactive: 14.8 µM.

As for `Cc1ccccc1N1C(=O)C2C=CC(n3[nH]c(=O)n(Cc4ccccc4)c3=O)CC2C1=O` (stereo not given), the GI50 was inactive: > 100 µM.

Take `Cn1c(CO)ccc1-c1ccc(-c2ccc(CO)[se]2)[se]1`: the GI50 was inactive: 8.65 µM.

For the molecule `CCn1c(=N)sc2nc3ccccc3n2c1=O`, the GI50 is inactive: > 100 µM.

As to `CCOc1ccccc1C=C1c2ccccc2C(=O)c2ccccc21`, the GI50 is inactive: 5.14 µM.

For `CCC(C)N1CN(c2ccccc2)C2(CCN(CCCC3(c4ccc(F)cc4)OCCO3)CC2)C1=O` (stereo not given), the GI50 was inactive: 18.4 µM.

`N/C(=N\O)NCCN1CCCCCCC1`: the GI50 was inactive: > 100 µM.

Take `c1ccc2c(c1)[n-]n1c3ccc4nonc4c3n[n+]21`: the GI50 was inactive: > 100 µM.

On to `C[C@@H]1S[C@H](c2c(Cl)cccc2Cl)N2Cc3ccccc3N=C12`, for which the GI50 is inactive: > 100 µM.

Turning to `Cc1ccc(N/N=C/C2=CC(C)(C)C(C#N)(C#N)C(O)=C2C#N)cc1`, the GI50 is inactive: 60.8 µM.

For `[O-]c1on[n+]2c1c(Nc1ccc(Cl)cc1)nc1ccccc12`, the GI50 was inactive: > 100 µM.

For `COc1cc(/C=C/C(=O)OC[C@]23O[C@H]2[C@@H](OC2OC(C)C(O)C(O)C2O)C2C=CO[C@@H](OC4OC(CO)C(O)C(O)C4O)C23)ccc1O` (stereo not given in full), the GI50 was inactive: > 100 µM.

For `CNC(C)Cc1ccc(O)cc1` (stereo not given), the GI50 is inactive: > 100 µM.

For the molecule `CCN(C(=S)N[C@H](C(=O)N[C@@H](C)C(=O)OC)C(C)C)c1ccccc1`, the GI50 was inactive: > 100 µM.

Take `COC(=O)Cc1cc(=O)n2c([nH]c3ccccc32)c1C#N`: the GI50 is inactive: > 100 µM.

As to `COC(=O)c1ccccc1CC(Cc1ccc2c(c1)CCC2)C(=O)OC` (stereo not given), the GI50 is inactive: > 100 µM.

As for `CC(=O)Oc1c(C)n(CCCl)ccc1=O`, the GI50 was inactive: 86.7 µM.

Take `CCCCCCCCC[n+]1cccc(C2C(C(=O)OCC)=C(C)NC(C)=C2C(=O)OCC)c1`: the GI50 is inactive: 16 µM.

For `Cc1cn([C@H]2C[C@@H]3[C@@H](COC(CCl)N3O)O2)c(=O)[nH]c1=O` (stereo not given in full), the GI50 was inactive: > 100 µM.

Regarding `Cc1cc2c(C)n[nH]c2c(C(=O)O)c1C`, the GI50 is inactive: > 100 µM.

In the case of `Clc1ccc(CCn2cncn2)c(Cl)c1`, the GI50 was inactive: > 100 µM.

Consider `O=C(CSSCC(=O)Nc1ccc(Br)cc1)Nc1ccc(Br)cc1`, for which the GI50 was inactive: 24.1 µM.

With `CC(=O)NC1=C(N)C(=O)c2ccccc2C1=O`, the GI50 was inactive: > 100 µM.

With `O=C1c2ccccc2C(=O)c2c1ccc1c2N=C(c2ccc(Br)cc2)CC(c2cccc3ccccc23)N1` (stereo not given), the GI50 was inactive: > 100 µM.

Consider `CSC(=S)OC1C(CO[Si](C)(C)C(C)(C)C)OC2OC(C)(C)OC21` (stereo not given), for which the GI50 is inactive: 20.9 µM.

As for `CCOC(=O)CN1CCS/C1=N/C#N`, the GI50 was inactive: > 100 µM.

As for `CN(CCC#N)c1ccc(/C=C2\SC(=S)NC2=O)cc1`, the GI50 was inactive: 44.2 µM.

`O=P1(Oc2ccc(Cl)cc2Cl)Oc2cc3ccccc3cc2O1`: the GI50 is inactive: 55 µM.

For the molecule `COc1ccc2nc(NC(=O)C(=O)CC(=O)c3ccc(Cl)cc3)sc2c1`, the GI50 was inactive: 49.1 µM.

`COc1ccc2c(c1)c1cc(OC)ccc1n2CCCCOc1ccc(-c2c3ccccc3c(-c3ccc(OCCCCn4c5ccc(OC)cc5c5cc(OC)ccc54)cc3)c3ccccc23)cc1`: the GI50 was inactive: > 100 µM.

Consider `Cc1oc2c(c1C)S(=O)(=O)C(C#N)=C(c1ccccc1)N2`, for which the GI50 is inactive: > 100 µM.

Take `N#CCCCCC12C3C(=O)N(c4ccccc4)C(=O)C3ON1O[C@@H]1C(=O)N(c3ccccc3)C(=O)[C@@H]12` (stereo not given in full): the GI50 was inactive: > 100 µM.

Take `Fc1ccc(C2SCc3nc4ccccc4n32)cc1Cl` (stereo not given): the GI50 is inactive: 36.6 µM.

For `Cc1ccc(NC(=O)c2cc3ccccc3c(/N=N\c3ccccc3O)c2O)c(C)c1`, the GI50 was inactive: 3.48 µM.

Consider `O=C1Nc2ccccc2Cn2c1cc1oc(-c3ccccc3)cc12`, for which the GI50 is inactive: 37.7 µM.

Turning to `O=C(CSCC(=O)N/N=C/c1ccncc1)N/N=C/c1ccncc1`, the GI50 is inactive: > 100 µM.

In the case of `COc1ccc(N(C)C(=O)N(C)c2ccc([N+](=O)[O-])cc2)cc1`, the GI50 is inactive: > 100 µM.

Take `CC(C)C1CC[C@H](C)C[C@@H]1OC(=O)C(C(=O)O[C@H]1C[C@@H](C)CCC1C(C)C)C(O)[C@@H]1OC(C)(C)O[C@H]1C1COC(C)(C)O1` (stereo not given in full): the GI50 is inactive: 21.5 µM.

As to `C[C@@H](N[C@H]1CCC[C@@H]1O)c1ccccc1.C[C@@H](N[C@H]1CCC[C@H]1O)c1ccccc1`, the GI50 is inactive: > 100 µM.

As for `COC(=O)C1CC(=O)O[C@H]1c1ccc(OC)c(OC)c1` (stereo not given in full), the GI50 was inactive: > 100 µM.

Turning to `Cc1ncc([N+](=O)[O-])n1CCNC(=O)CCCn1ccnc1[N+](=O)[O-]`, the GI50 was inactive: > 100 µM.

Consider `NC(CCCCP(=O)(O)O)C(=O)O` (stereo not given), for which the GI50 was inactive: > 100 µM.

In the case of `CC1=NN(c2ccccc2)C(=O)/C1=C\c1c(C)[nH]n(-c2ccccc2)c1=O`, the GI50 is inactive: > 100 µM.

On to `O=c1c(C(c2ccc3ccccc3c2)c2c(O)oc3ccccc3c2=O)c(O)oc2ccccc12`, for which the GI50 is inactive: 36.9 µM.

For the molecule `O=C1Nc2ccc([N+](=O)[O-])cc2/C1=N/NC(=S)Nc1ccccc1`, the GI50 was inactive: 5.68 µM.

For the molecule `Cc1cc(-c2nc3ccc(F)cc3s2)ccc1N`, the GI50 was inactive: 76.6 µM.
